According to patent US20210403583A1 (ELIXIRON IMMUNOTHERAPEUTICS HONG KONG, published 2021):

B1: recombinant IL10-Fc fusion protein (Fc fusion)
chain: SPGQGTQSENSCTHFPGNLPNMLRDLRDAFSRVKTFFQMKDQLDNLLLKESLLEDFKGYLGCQALSEMIQFYLEEVMPQAENQDPDIKAHVNSLGENLKTLRLRLRRCHRFLPCENKSKAVEQVKNAFNKLQEKGIYKAMSEFDIFINYIEAYMTMKIRNGGGGSGGGGSGGGG[letters of human IgG1 Fc left out]
notes: Human IL10 fused by a linker to the N-terminus of human IgG1 Fc; expressed in ExpiCHO cells
B2: recombinant (IL10)2-Fc fusion protein (Fc fusion)
chain: SPGQGTQSENSCTHFPGNLPNMLRDLRDAFSRVKTFFQMKDQLDNLLLKESLLEDFKGYLGCQALSEMIQFYLEEVMPQAENQDPDIKAHVNSLGENLKTLRLRLRRCHRFLPCENKSKAVEQVKNAFNKLQEKGIYKAMSEFDIFINYIEAYMTMKIRNGGGGSGGGGSGGGGSPGQGTQSENSCTHFPGNLPNMLRDLRDAFSRVKTFFQMKDQLDNLLLKESLLEDFKGYLGCQALSEMIQFYLEEVMPQAENQDPDIKAHVNSLGENLKTLRLRLRRCHRFLPCENKSKAVEQVKNAFNKLQEKGIYKAMSEFDIFINYIEAYMTMKIRNGGGGSGGGGSGGGG[letters of human IgG1 Fc left out]
notes: Two human IL10 in tandem fused by linkers to the N-terminus of human IgG1 Fc; expressed in ExpiCHO cells

Target: T1, recombinant human IL-10Ra fusion protein (R&D Systems) (human, UniProt Q13651 22-235)
T1 sequence (looked up): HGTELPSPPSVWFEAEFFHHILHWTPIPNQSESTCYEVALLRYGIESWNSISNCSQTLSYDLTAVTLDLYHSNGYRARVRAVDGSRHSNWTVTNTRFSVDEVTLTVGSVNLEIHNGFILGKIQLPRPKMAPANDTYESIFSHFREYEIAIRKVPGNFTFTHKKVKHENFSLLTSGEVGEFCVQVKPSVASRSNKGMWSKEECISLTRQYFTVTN
Experiment: ELISA, coated human IL-10Ra fusion protein
Protocol: Materials and methods: Recombinant human IL-10Ra fusion protein (R&D Systems) were immobilized on 96 well microtiter plate at a concentration of 1 μg/ml in Coating Solution (SeraCare) overnight at 4° C. The wells were washed with wash solution (0.05% Tween20 in imidazole-buffered saline) and blocked with 1% BSA. Serial dilutions of Ab/IL-10 fusion proteins were added to wells. After incubation at 37° C. for lhr, the wells were washed with wash solution. Peroxidase-conjugated goat anti-human kappa light chain antibody (Bethyl) was applied to each well at 37° C. for 1 hr incubation. After washing, the wells were developed with TMB substrate for 5-10 min at RT and then stopped with 1 N HCl. Thereafter absorbance was measured at 450 nm and 650 nm. The EC50 value was calculated through GraphPad Prism7.

Binder | EC50 [nM]
B1 | 3.85
B2 | 7.24
